In PubChem BioAssay AID1347417 (National Center for Advancing Translational Sciences (NCATS), 2020):
Among all 120,000 compounds or so, about 5,300 (4.4%) were called active. The shares of active, inactive and inconclusive entries below differ from those in the screen. Calls come from the whole dose curve; as a rule, active = well fitted inhibition curve with a large enough effect; inconclusive = small, poorly fitted or top-dose-only effect; inactive = no such curve, though single readings can be large or run the other way. Potencies of inconclusive entries are doubtful fits and often do not repeat.

assay: qHTS Primary assay for Inhibitors of Plasmodium falciparum Dd2 growth in vitro; note: nearly all actives have a fitted effect of over 65% in size;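 for activity, negative = inhibition: plate controls were DMSO vehicle for no effect and reference drug for full effect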; conditions: P. falciparum Dd2 growth, SYBR Green, 72 h; activity, negative = inhibition: at 28.9 µM (top of the series) unless noted; series mostly up to 28.9 µM
How it was run: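 Infected erythrocytes (Dd2, 0.3% parasitemia, 2.5% hematocrit final) are added to compound in RPMI-1640/Albumax II medium, grown 72 h at 37C in low oxygen, then lysed with saponin/Triton-X containing SYBR Green and read by fluorescence.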
Potency is the fitted concentration of half-maximal effect; tags give direction and shape of the fitted curve.

SMILES | activity, negative = inhibition | Potency | outcome
COCCNC(=O)CCc1nc2cccnc2n1Cc1ccc(OC)cc1 | inactive: 2.32% | – | –
O=C(NCc1ccc(N2CCOCC2)cc1)c1cccc2c1CCN2C(=O)C1CC1 | – | inconclusive: 3.98 µM [inhibitor, single point] | –
CC1=C[C@@H](CN2CCN(C)CC2)[C@H](C(C)C)C[C@H]1Cc1nnc(-c2ccccc2F)o1 | – | inconclusive: 2.51 µM [inhibitor, partial curve, poor fit] | –
Cc1ccc(C(=O)c2oc3ccccc3c2NC(=O)c2cc(-c3ccccc3)on2)cc1F | inactive: 17.4% | – | –
COc1ccc(C(=O)N2CCC3(CC2)CCC(O)(CN(C)C)CC3)cc1 | inactive: -20.3% | – | –
OCC1CN(Cc2ccccc2)CC12CCN(Cc1ccccn1)CC2 (stereo unspecified) | – | inconclusive: 6.31 µM [inhibitor, single point] | –
CCN(CC)c1cc(C)c2cc(NC(=O)/C=C/c3ccc(C)cc3)ccc2n1 | – | inconclusive: 8.91 µM [inhibitor, partial curve, poor fit] | –
O=C(Cn1nc2c(cc1=O)CCCC2)Nc1ccc(C(F)(F)F)cc1 | – | inconclusive: 14.1 µM [inhibitor, partial curve, poor fit] | –
O=S(=O)(c1ccc(C(F)(F)F)cc1)N1CCCC(Cn2cnc3cccnc32)C1 (stereo unspecified) | – | – | inactive
O=C1NCCC[C@@H]1NC(=O)[C@H]1CN(C(=O)CS(=O)(=O)c2ccccc2)CCN1C(=O)C1CCCCC1 | – | inconclusive: 5.62 µM [inhibitor, partial curve, poor fit] | –
O=C(NCc1ccccc1)N1CCCC(Cn2cnc3cccnc32)C1 (stereo unspecified) | inactive: -24.3% | – | –
COc1cccc(CN2CC[C@H](c3nc4ccccc4s3)C2)c1 | – | inconclusive: 12.6 µM [inhibitor, single point] | –
Cc1ccsc1C(=O)C1CCCN(Cc2ccc(OC(C)C)c(CO)c2)C1 (stereo unspecified) | – | inconclusive: 20 µM [inhibitor, single point] | –
CC1(c2ccccc2)N(Cc2ccccc2F)C(=O)OC12CCN(C(=O)CN1CCOCC1)CC2 (stereo unspecified) | – | – | inactive
CNC(=O)C1(N2CCC[C@H]2C(=O)N2CCC[C@@H]2COC)CCCCC1 | inactive: -24.6% [at 44.1 µM] | – | –
CCC1CN(C(=O)N2CCC(C(=O)NCc3ccc(OC)cc3OC)CC2)c2cc(C)ccc2O1 (stereo unspecified) | – | inconclusive: 10 µM [inhibitor, single point] | –
Cc1ccc(NC(=O)Cn2c(-c3ccc4c(c3)OCO4)cn(-c3ccccc3)c2=O)cc1C | – | inconclusive: 12.6 µM [inhibitor, partial curve, poor fit] | –
Clc1ccc(-c2cnc([C@@H]3COCCN3Cc3cnc4ccccc4c3)[nH]2)s1 | – | – | inactive [at 44.1 µM]
COCCNC(=O)c1ccc(OC2CCN(CC3CCOC3)CC2)c(Cl)c1 (stereo unspecified) | inactive: -11.4% | – | –
CCCNC(=O)Cn1c(C)ccc(NC(=O)Nc2ccc(OC)cc2)c1=O | – | inconclusive: 7.94 µM [inhibitor, single point] | –
CC(=O)Nc1ccc([C@H]2OCC(=O)N(Cc3ccccc3)[C@@H]2CO)cc1 | inactive: 7.11% [at 44.1 µM] | – | –
CCN1C(=O)C2CC3(CCN(C(=O)c4ccc(C)s4)CC3)CN2C1=O (stereo unspecified) | – | inconclusive: 15.8 µM [inhibitor, partial curve, poor fit] | –

SMILES | activity, negative = inhibition | Potency | outcome
Cn1c(SCc2ccc(F)cc2)nc2ccc(C(=O)NCc3ccc(F)cc3)cc21 | – | inconclusive: 10 µM [inhibitor, partial curve, poor fit] | –
CCN(CC)CCN(C(=O)c1ccco1)c1nc2ccc(Cl)cc2s1 | inactive: -4.8% | – | –
O=C(Nc1cccc(C(F)(F)F)c1)N[C@H]1CO[C@H]2[C@@H]1OC[C@@H]2n1nnnc1Oc1ccccc1 | inactive: 10.7% | – | –
O=C(NCc1ccccc1F)C1c2ccccc2C(=O)N(Cc2ccccc2)C12CCCC2 (stereo unspecified) | – | inconclusive: 11.2 µM [inhibitor, single point] | –
CCCCN1C(=O)C(CC(=O)NC2CCCC2)Sc2ncccc21 (stereo unspecified) | inactive: -0.67% | – | –
CCn1c(CN(C)C)nnc1C1CCN(C(=O)c2ccn(C(F)F)n2)CC1 | inactive: 10.5% | – | –
COC(=O)c1cccc(NC(=S)N[C@H]2CO[C@H]3[C@@H]2OC[C@@H]3n2cc(-c3ccccc3)nn2)c1 | – | – | inactive
CCOC(=O)C1CCN(C(=O)C2COC3(CCC(C)CC3)N2C(=O)c2ccccc2F)CC1 (stereo unspecified) | – | inconclusive: 7.08 µM [inhibitor, partial curve] | –
COc1ccc(-c2nn(C)c3sc(C(=O)Nc4cccc(F)c4)cc23)cc1OC | – | active: 2.51 µM | –
COc1ccc(-c2nnc(C[C@@H]3C[C@@H](C(C)C)[C@H](CN4CCC(C(N)=O)CC4)C=C3C)o2)cc1 | – | inconclusive: 6.31 µM [inhibitor, partial curve, poor fit] | –
Cc1c(Cl)cccc1-n1ncc(C(=O)Nc2ccc3c(c2)OCCO3)c1C1CCN(C(=O)OC(C)(C)C)CC1 | – | inconclusive: 11.2 µM [inhibitor, single point] | –
Cc1ccc(S(=O)(=O)N2CCC(Oc3ncccc3C(=O)N(C)C)C2)cc1Cl (stereo unspecified) | – | inconclusive: 10 µM [inhibitor, single point] | –
COc1ccc(-n2nc(C3CCN(C(=O)c4ccc(C)cc4)CC3)[nH]c2=O)cc1 | – | inconclusive: 12.6 µM [inhibitor, partial curve, poor fit] | –
O=C(Nc1ccc(F)cc1)[C@H](Cc1ccccc1)N1Cc2ccccc2C1=O | – | inconclusive: 17.8 µM [inhibitor, single point] | –
Cn1nnnc1SCCCNCc1cccc(OCc2ccc(Cl)cc2)c1 | – | active: 12.6 µM | –
Cn1cnnc1C1CCN(C(=O)C2CCCN(C(N)=O)C2)CC1 (stereo unspecified) | inactive: 4.63% | – | –
CC(C)CCN1CC[C@@H]2OCC(=O)N(Cc3ccccc3)[C@H]2CC1 | – | inconclusive: 5.62 µM [inhibitor, single point] | –
Cc1ccccc1OCc1ccc(-c2nc(C#N)c(NCCCN(C)C)o2)o1 | – | inconclusive: 10 µM [inhibitor, single point] | –
Cc1ccc(C(=O)Nc2ccc(Cl)c(-c3nc4ncccc4o3)c2)c(C)c1 | – | inconclusive: 11.2 µM [inhibitor, single point] | –
CCOc1ccc(NC(=O)Cn2c(-c3ccc(Cl)cc3)nc(C)c(CCO)c2=O)cc1 | – | inconclusive: 8.91 µM [inhibitor, partial curve] | –
Cc1ccccc1CN1CC[C@H](c2nc3ccccc3s2)C1 | – | inconclusive: 0.447 µM [inhibitor, partial curve, poor fit] | –
O=c1c2c(n(Cc3ccccc3)n1-c1ccccc1)CN(Cc1ccc3[nH]ccc3c1)CC2 | – | active: 3.16 µM | –

SMILES | activity, negative = inhibition | Potency | outcome
COc1cccc(NC(=O)NC[C@H]2O[C@@H](CO)[C@@H](O)[C@H]2N2CCN(c3ccccc3OC)CC2)c1 | inactive: -0.955% | – | –
COCCn1c(COc2cccc(-n3nnnc3C)c2)nnc1C1CC(N)C1 (stereo unspecified) | inactive: -17.7% | – | –
Cc1ccc(CCNC(=O)CN(c2ccc(C)cc2)S(=O)(=O)c2c(C)noc2C)cc1 | inactive: 11.5% | – | –
COc1ccccc1CNc1ccc(-c2nc(C(C)C)no2)cc1[N+](=O)[O-] | – | inconclusive: 17.8 µM [inhibitor, single point] | –
CCOC(=O)N1CCN(C(=O)CN(c2cccc(Cl)c2C)S(=O)(=O)c2ccc(C)cc2)CC1 | – | inconclusive: 17.8 µM [inhibitor, single point] | –
CCNC(=O)N(C1CC1)C1CCOC2(CCN(C(=O)Cc3cccc(F)c3)CC2)C1 (stereo unspecified) | inactive: -13.1% | – | –
COc1ccc(OC)c(-c2nc3c(C)cccc3cc2CN2CCN(C)CC2)c1 | – | inconclusive: 6.31 µM [inhibitor, partial curve, poor fit] | –
COC(=O)c1ccc(Nc2ncnc3c2nc2n3CCCC2)cc1 | – | inconclusive: 2 µM [inhibitor, full curve, poor fit] | –
Cc1nc2cccnc2n1CC1CCCN(S(=O)(=O)c2ccc(F)c(Cl)c2)C1 (stereo unspecified) | – | inconclusive: 7.94 µM [inhibitor, partial curve] | –
COc1ccc(CCC(=O)N[C@@H]2CN(c3ncccn3)C[C@H]2CO)cc1 | – | – | inactive
COc1cccc(CC(=O)N2CCC3(CC2)CN(c2ncccn2)CC3CO)c1 (stereo unspecified) | inactive: -17.7% | – | –
CCOc1ccc(C(=O)NCCn2cc(SCC(=O)NCCc3ccc(OC)c(OC)c3)c3ccccc32)cc1 | – | inconclusive: 10 µM [inhibitor, single point] | –
COC[C@@H]1CCCN1Cc1cn(-c2ccccc2C)nc1-c1ccc(OC)c(F)c1 | – | inconclusive: 10 µM [inhibitor, single point] | –
O=C1N(CCc2ccccc2)CCOC12CCN(Cc1ccc(F)cc1)CC2 | – | inconclusive: 2.82 µM [inhibitor, partial curve, poor fit] | –
Cc1ccccc1C(=O)N1CCC2(CC1)c1nccn1-c1ccccc1CN2CC(C)C | – | inconclusive: 1.12 µM [inhibitor, partial curve, poor fit] | –
c1ccc2c(c1)CCN2c1nccnc1OC1CCNC1 (stereo unspecified) | – | active: 7.94 µM | –
N#Cc1ccc(CN2CCC3(CC2)OCCN(CCc2ccccc2)C3=O)cc1 | inactive: -26.1% [at 44.1 µM] | – | –
O=C(NCCc1ccccc1F)c1nc2sccn2c1Br | – | inconclusive: 7.08 µM [inhibitor, single point] | –
COc1ccc(OC)c(NC(=O)CSc2c3c(nc4ccccc24)CCCC3)c1 | – | inconclusive: 15.8 µM [inhibitor, single point] | –
COc1ccc(-c2nc3c(c(-c4ccccc4)n2)CN(C(=O)c2ccccc2Cl)CC3)cc1 | – | active: 10 µM | –
COc1ccc(/C=C\c2onc(C)c2S(=O)(=O)N2CCC(C(=O)Nc3ccccc3OC)CC2)cc1 | – | inconclusive: 10 µM [inhibitor, partial curve, poor fit] | –
Cc1cc(C(=O)N2C[C@@H](Oc3ccccc3)C[C@H]2C(=O)N2CCCC2)n(C)n1 | – | inconclusive: 3.98 µM [inhibitor, partial curve, poor fit] | –
